Data from PubChem BioAssay AID1347120 (National Center for Advancing Translational Sciences (NCATS), 2019).
About 930 (0.24%) of roughly 390,000 compounds were called active. The shares of active, inactive and inconclusive entries below differ from those in the screen. Calls follow the shape of the dose curve; as a rule, active = well fitted activation curve with a large enough effect; inconclusive = small, poorly fitted or top-dose-only effect; inactive = no such curve, though single readings can be large or run the other way. Where the call is inconclusive, the potency comes from a doubtful curve fit.

Test: qHTS for Suppressors of FUS Proteinopathy: Primary screen using FUS-linked yeast assay; also: nearly all actives have a fitted effect of over 55% in size
Details: S. cerevisiae FUS-expressing, OD600, 24 h; Potency: growth rescue; series mostly up to 76.6 µM
How it was run: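 Yeast FUS proteinopathy model; galactose-induced FUS (2%), starting OD 0.005. Cpds in dilution series, 24hr, 30C, 99% humidity. Abs 600 nm growth. Pos ctrl CP55940 (top 92uM final); neg ctrl DMSO.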
Potency is read from the fitted curve at half-maximal effect; tags tell the direction and shape of the fitted curve.

Compound	Potency
Cc1[nH]nc2c1C(c1ccc(O)cc1)C1=C(CC(C)(C)CC1=O)N2 (stereo not given)	inactive
CC(=O)c1ccc(NC(=O)NC2CCCCN(Cc3ccc(Cl)cc3)C2=O)cc1 (stereo not given)	inconclusive: 28.2 µM [activator, single point]
Cn1c(O)c(N=NC(=O)CNC(=O)/C=C/c2ccccc2)c2ccccc21	inconclusive: 4.47 µM [activator, partial curve, poor fit]
COc1ccc2cc(C(=O)NCc3ccc4c(c3)CCN4C(=O)c3ccc(F)cc3)[nH]c2c1	inactive
Cc1cccc(C(=O)N2CCC(=O)N(C(COCc3cccc(Cl)c3)Cc3ccccc3)CC2)c1 (stereo not given)	inconclusive: 22.4 µM [activator, single point]
CCN(C(=O)Nc1cn(CC(C)C)c(=O)c2ccccc12)c1cc(C)ccc1C	inactive
COc1cc(NC(=O)c2ccco2)c(OC)cc1NC(=O)CCC(=O)Nc1cc(C)cc(C)c1	inconclusive: 44.7 µM [activator, partial curve, poor fit]
CSc1ccc(S(=O)(=O)Nc2ccc(NC(C)=O)cc2)cc1	inactive
C/C=C\C=C/C(=O)Nc1cccc(C2=NOC3(C2)C[C@@H](C(N)=O)N(C(=O)c2ccc(Cl)cc2)C3)c1 (stereo not given in full)	inconclusive: 31.6 µM [activator, single point]
COc1cccc(NC(=O)c2ccc(-c3nc(COc4ccccc4)c(C)o3)cc2)c1	inactive
CCCCN(CC)C(=O)CSc1c2c(nc3ccc(Cl)cc13)CCCC2	inactive
Cc1nc2ccc(C(=O)N3c4ccccc4N=C(c4ccc5c(c4)OCO5)C3C(=O)NCc3ccccc3)cc2[nH]1 (stereo not given)	inconclusive: 35.5 µM [activator, single point]
CCOC(=O)[C@]12CCCCC/C=C\1N(CCc1ccc(Cl)cc1)C(=O)[C@H]2CC(=O)N1CCSCC1	inactive
CCOc1ccc(NC(=O)c2sc3nc4c(c(-c5ccc(OC)cc5)c3c2N)C(=O)CC(C)(C)C4)cc1	inactive
O=C(NCc1ccccc1)C(c1cccc2ccccc12)n1c(=O)c(-c2cc3ccccc3[nH]2)nc2ccccc21 (stereo not given)	inconclusive: 15.8 µM [activator, partial curve, poor fit]
COc1cc(C)ccc1OCc1cc(C(=O)N2CCCCCCC2)no1	inconclusive: 50.1 µM [activator, single point]
CCCCCCCCN1C(=O)[C@H](CC(=O)NCCC(C)C)C[C@@]2(C(=O)OC)CC(C)(C)CC=C12	inconclusive: 14.1 µM [activator, single point]
CCc1ccc(-n2c(SCc3ccccc3Cl)nc3[nH]ncc3c2=O)cc1	inconclusive: 50.1 µM [activator, single point]
CN(C)c1ccc(-c2ccnc3c2CC(C)(C(=O)NCc2cccc(Cl)c2)O3)cc1 (stereo not given)	inconclusive: 28.2 µM [activator, single point]
N#C/C(=C\c1ccccc1)C(=O)NC1CC1	inactive

Compound	Potency
COc1cccc(N=Cc2c(O)n(-c3cccc(C)n3)c(=O)c3ccccc23)c1	inconclusive: 31.6 µM [activator, partial curve, poor fit]
CC(=O)N1c2ccc(S(=O)(=O)N3CCC(C(=O)NC4CCC(C)CC4)CC3)cc2CC1C (stereo not given)	inconclusive: 35.5 µM [activator, single point]
Cc1ccc(S(=O)(=O)N(C(=O)c2ccncc2)c2ccc(OC(=O)c3ccncc3)c3ccccc23)cc1	inconclusive: 15.8 µM [activator, partial curve]
C[C@]12c3[nH]c4ccc(Cl)cc4c3CCN1C(=O)[C@@H](CC(=O)NCCc1ccccn1)C[C@@H]2C(=O)N1CCCCC1	inactive
C=CCNc1sc(C(=O)c2ccccc2)c(N)c1-c1nc2ccccc2s1	inconclusive: 35.5 µM [activator, single point]
O=C(N/N=C/C=C/c1ccccc1)NC1CCCCC1	inactive
CCOC(=O)c1c(C)n(C)c2ccc(OCC(O)Cn3nc(C)c(Br)c3C)cc12 (stereo not given)	inconclusive: 22.4 µM [activator, partial curve]
CCCC(=O)Nc1nc2ccc(C(=O)OCC)cc2s1	inactive
O=C(c1cccc(Cl)c1)N1CCC(=O)N(C(COCc2cccc(Cl)c2)Cc2ccccc2)CC1 (stereo not given)	inconclusive: 14.1 µM [activator, partial curve]
CCCNc1ncnc2c1c(-c1ccccc1)cn2-c1ccccc1	inconclusive: 20 µM [activator, partial curve, poor fit]
CCC(C)Sc1ccc([C@@H]2[C@H]3C(=O)N(CC)C(=O)[C@H]3[C@]3(C(=O)OC)CCCCN23)cc1 (stereo not given in full)	inconclusive: 12.6 µM [activator, partial curve]
CCOC(=O)/C(=C/C=C1\Sc2ccccc2N1CC)C(C)=O	inactive
Cc1coc2c(C)c3oc(=O)c(CCC(=O)N4CCCCC4)c(C)c3cc12	inactive
CCOC(=O)N1CCN(CC(O)COCC2=CCC3CC2C3(C)C)CC1 (stereo not given)	inconclusive: 6.31 µM [activator, partial curve, poor fit]
CCc1ccc2c(c1)NC(=O)C2(C)Cc1ccc(Cl)cc1 (stereo not given)	inactive
Cc1ccc(C)c(NC(=O)CN(C)C(=O)c2ccc3[nH]c4c(c3c2)CC(C)CC4)c1 (stereo not given)	inconclusive: 50.1 µM [activator, partial curve, poor fit]
CC1=C(C(=O)Nc2ccc(C(=O)N3CCN(c4cccc(Cl)c4)CC3)cc2)SCCO1	inconclusive: 39.8 µM [activator, partial curve, poor fit]
CCOC(=O)c1sc2nc(CC(=O)OC)nc(N3CCN(c4ccc(OC)cc4)CC3)c2c1C	inconclusive: 10 µM [activator, partial curve]
CC#CCN1c2ccccc2[C@]23C[C@@H](C(=O)OC)N(C(=O)NC(C)(C)C)C2=NC(C(=O)OC)=C(C(=O)OC)[C@H]13	inconclusive: 11.2 µM [activator, partial curve]
COC(=O)c1ccccc1N(C)S(=O)(=O)c1cc2c3c(c1)CC(=O)N3CCC2	inactive
